Reference: paper PMC4336329 (PLoS ONE, 2015)
Among all 310,000 compounds or so, about 14,000 (4.5%) showed an effect of 50% or more. Effects have a minus sign here. The list shows a part of the results.

Molecular target: human ether-à-go-go-related gene (hERG) potassium channel (human, UniProt Q12809)
Experiment: primary screen, population patch clamp on CHO cells stably expressing hERG
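Note: peak tail current of the secondary pulse compared with the same well before compound.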

Chain of human ether-à-go-go-related gene (hERG) potassium channel (Q12809 whole entry, looked up): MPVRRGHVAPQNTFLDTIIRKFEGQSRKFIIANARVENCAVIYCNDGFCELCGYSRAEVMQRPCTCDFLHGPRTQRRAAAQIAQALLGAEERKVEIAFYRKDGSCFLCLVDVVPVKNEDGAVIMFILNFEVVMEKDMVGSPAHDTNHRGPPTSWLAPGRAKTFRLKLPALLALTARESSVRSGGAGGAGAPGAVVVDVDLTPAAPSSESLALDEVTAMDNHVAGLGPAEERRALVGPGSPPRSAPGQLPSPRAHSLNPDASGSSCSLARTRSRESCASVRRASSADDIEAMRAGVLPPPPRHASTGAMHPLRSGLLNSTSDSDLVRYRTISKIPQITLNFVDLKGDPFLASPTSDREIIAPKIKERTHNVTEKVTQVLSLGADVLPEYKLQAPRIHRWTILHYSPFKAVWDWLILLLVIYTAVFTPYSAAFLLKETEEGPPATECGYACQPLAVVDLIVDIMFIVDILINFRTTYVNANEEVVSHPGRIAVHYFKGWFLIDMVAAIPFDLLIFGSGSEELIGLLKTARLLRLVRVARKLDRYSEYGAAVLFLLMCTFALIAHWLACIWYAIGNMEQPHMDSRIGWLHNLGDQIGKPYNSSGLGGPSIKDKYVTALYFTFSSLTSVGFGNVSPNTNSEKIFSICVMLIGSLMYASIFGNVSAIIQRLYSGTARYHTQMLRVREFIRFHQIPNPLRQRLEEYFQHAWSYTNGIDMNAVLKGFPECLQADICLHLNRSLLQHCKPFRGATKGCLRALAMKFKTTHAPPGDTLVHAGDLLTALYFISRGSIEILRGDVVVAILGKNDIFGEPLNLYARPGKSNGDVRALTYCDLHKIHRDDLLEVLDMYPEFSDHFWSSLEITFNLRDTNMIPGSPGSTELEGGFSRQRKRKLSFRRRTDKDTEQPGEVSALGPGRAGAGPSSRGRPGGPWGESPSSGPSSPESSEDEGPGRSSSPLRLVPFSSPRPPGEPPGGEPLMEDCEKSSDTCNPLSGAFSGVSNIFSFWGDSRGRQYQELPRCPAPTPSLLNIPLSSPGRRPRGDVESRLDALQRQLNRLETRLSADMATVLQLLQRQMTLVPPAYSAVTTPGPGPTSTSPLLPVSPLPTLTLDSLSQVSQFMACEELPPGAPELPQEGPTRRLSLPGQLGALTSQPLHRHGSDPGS

| SMILES | hERG current change (%, negative = inhibition) at 10uM [%] |
| --- | --- |
| COc1ccc(C2C(C(=O)N3CCC4(CC3)OCCO4)c3cc(OC)c(OC)cc3C(=O)N2C)cc1 (stereo not drawn) | 12.3 |
| CCN(CC)S(=O)(=O)c1ccc(OC(C)C)c(NC(=O)c2c3c(nc4ccccc24)CCN(Cc2ccccc2)C3)c1 | -17.7 |
| Cc1ccc(-n2c(SCC(=O)N3CCOCC3)nc(O)c(Cc3ccccc3)c2=O)cc1 | 9.15 |
| O=C([O-])Cc1ccccc1Nc1c(Cl)cccc1Cl.[Na+] | 3.03 |
| CCOc1cccc2sc(N(CCCN(C)C)C(=O)c3ccc(S(=O)(=O)N(C)CC4CCCO4)cc3)nc12.Cl (stereo not drawn) | -77.4 |
| Cc1nc2ccc(C(=O)N3CCN(Cc4ccccc4)CC3)cc2[nH]1 | 17.1 |
| Cn1nc(C(F)(F)F)c(C(=O)Nc2ccc(F)cc2F)c1Oc1cccc(Cl)c1 | -12.1 |
| COc1ccc(OC)c(N/C(C)=C/C(=O)c2ccncc2)c1 | -24.3 |
| COC(=O)CCC(=O)Nc1ccc2oc3c(c2c1)CCCC3 | 3.69 |
| S=C(NC1CCCC1)N1CCN(c2ccccn2)CC1 | -16.9 |
| COCC(=O)NC1CC2CCC(C1)N2C(=S)Nc1ccccc1C(=O)OC (stereo not drawn) | 2.87 |
| CN(CC(=O)NC1CC1)S(=O)(=O)c1ccc(Br)cc1 | 9.51 |
| CCOC(=O)c1ccc(NCc2nc3ccccc3[nH]2)cc1 | -10.6 |
| O=C(COC(=O)c1ccccc1NCc1ccco1)Nc1ccc2c(c1)OCO2 | -3.83 |
| Nc1nc(-n2cnnc2)nn1-c1ccccc1 | -0.287 |
| OC[C@H]1OC(Nc2ccc(N=Nc3ccccc3)cc2)[C@@H](O)[C@@H](O)[C@@H]1O (stereo partly drawn) | 16.1 |
| O=C(Nc1ccccn1)c1c(O)c2cccc3c2n(c1=O)CCC3 | 7.22 |
| COc1ccc(C2CC(=O)Oc3c(C(CCN4CCCC(C)C4)c4ccc(N(C)C)cc4)c(OC)cc(OC)c32)cc1 (stereo not drawn) | -28.4 |
| CCCCN1C(Nc2ccccc2)=NC[C@@H]1C | 14.4 |
| CCO[C@@H]1OC(C(=O)N2CCOCC2)=C[C@H](C2CC2)[C@H]1CCCO | 11.6 |
| CCOC(=O)C1CCN(C(=O)CSc2ccc(Cl)cc2)CC1 | -32.5 |
| CCOc1ccc(N(CC(=O)Nc2cc(Cl)ccc2C)S(C)(=O)=O)cc1 | -16.4 |

| SMILES | hERG current change (%, negative = inhibition) at 10uM [%] |
| --- | --- |
| Cc1cccc(N2CCN(S(=O)(=O)c3ccc4c(c3)n(C)c(=O)c(=O)n4C)CC2C)c1 (stereo not drawn) | -7.04 |
| CCOCCCNC(=O)CN1C(=O)CSc2ccccc21 | -8.97 |
| COCCNC(=O)CC(=O)N/N=C/c1ccc(C(=O)OC)cc1 | 20.7 |
| CCOC(=O)N1CCC(NC(=O)CS(=O)(=O)Cc2nc(-c3cccc(OC)c3)oc2C)CC1 | -54.2 |
| O=C(NC(=S)NC1CCCC1)c1ccccc1Br | 15.2 |
| O=C(Cn1nnc2ccccc2c1=O)NC1CCCCC1 | 19.9 |
| COc1ccc(CC(=O)N2N=C(C)CC2(O)C(F)(F)F)cc1 (stereo not drawn) | 2.87 |
| CCOC(=O)c1c(Cc2cccc(Cl)c2)c[nH]c1C | -3.91 |
| C=C(C)c1cccc(C(C)(C)NC(=O)NCc2ccc(OC)cc2)c1 | 12.5 |
| COc1ccc(Nc2nccc3c2nnn3C)cc1 | 9.82 |
| Cc1cccc2cc(COC(=O)C(C)C)c(=O)[nH]c12 | -69.3 |
| O=S(=O)(c1ccc(Cl)cc1)N1CCN=C1SCc1cccc(Cl)c1 | -5.86 |
| COC(=O)C1=C(c2ccc(Cl)c(C(F)(F)F)c2)C[C@@H]2CC[C@H]1N2C(=O)NCCOc1ccc(OC)cc1 | 11.4 |
| COc1ccccc1CCc1nnc(N)s1 | 14.5 |
| Cc1cccc(S(=O)(=O)c2c(N)n(/N=C/c3cccnc3)c3nc4ccccc4nc23)c1 | -4.67 |
| Cc1cc(NC(=O)CSCC(=O)Nc2ccccc2Oc2ccccc2)no1 | -8.79 |
| Cc1ccc(S(=O)(=O)c2c(C)cc(C)nc2Cl)cc1 | -2.14 |
| c1ccc(C2[C@H]3CN(CC4CCCCC4)[C@H](c4ccccc4)C34CC2(c2cccnc2)C4)cc1 (stereo partly drawn) | -9.14 |
| N/C(=N\[N+](=O)[O-])N1CCN(C(=O)Oc2ccccc2)CC1 | 17 |
| CN(Cc1ccccc1)C(=O)C1CCN(S(=O)(=O)c2cccc3nsnc23)CC1 | -12 |
| CCNc1ccc(S(=O)(=O)N(C)C)cc1[N+](=O)[O-] | -11.6 |
| Cc1nc(SCC(=O)Nc2nccs2)c(C#N)c(C)c1C | 16.2 |

| SMILES | hERG current change (%, negative = inhibition) at 10uM [%] |
| --- | --- |
| O=[N+]([O-])c1ccc(-n2ccnc2)cc1 | 7.95 |
| CC(=O)C[C@@H](O)CC(=O)[C@@H]1OC(=O)CC/C=C\Cc2ccccc21 | 16 |
| COc1cccc(C(C(=O)NC2CCCC2)N(Cc2ccc(C)cc2)C(=O)c2ccco2)c1OC (stereo not drawn) | 6.86 |
| COc1ccc(/C=N/Nc2cc(N3CCCC3)nc(N3CCCC3)n2)cc1 | -31.7 |
| Oc1ccccc1CNCCCNCc1ccccc1O | -5.59 |
| O=C(Cc1ccccc1[N+](=O)[O-])NCCC1=CCCCC1 | 7.74 |
| COc1cc(C2CC(=O)NC(SCC(=O)Nc3ccccc3C)=C2C#N)ccc1O (stereo not drawn) | 9.64 |
| Cc1cccc(NC(=O)c2cnccn2)c1 | 14.3 |
| CCc1ccc(NC(=O)CC2C(=O)N(c3ccc(C)cc3)C(=O)N2C2CC2)cc1 (stereo not drawn) | -4.46 |
| CCN(c1ccc(C(=O)CN2C(=O)NC3(CCOc4ccccc43)C2=O)cc1)S(C)(=O)=O (stereo not drawn) | -1.91 |
| O=C(CN(C(=O)CCC(=O)Nc1ccccn1)c1ccc(F)cc1)NCc1ccc(F)cc1 | -3.16 |
| COc1cccc2cc(C(=O)Nc3cccc(C)n3)c(=O)oc12 | 4.36 |
| CCOC(=O)c1c(C)[nH]c(C)c1S(=O)(=O)NCc1ccc(OCC)cc1 | -7.15 |
| CCN(CC)c1ccc(S(=O)(=O)N2CCOCC2)cc1NC(=O)CSc1nncn1C | 5.7 |
| CC(=O)c1c(C(C)=O)c(C)n(C(c2ccccc2)c2ccccc2)c1C | -9.83 |
| O=C(CN1C(=O)C2C3C=CC(C3)C2C1=O)NCc1ccco1 (stereo not drawn) | 1.25 |
| COc1cccc(NC(=O)CN(C)C(=O)CN2C(=O)NC3(CCCC3)C2=O)c1 | -11.8 |
| Cc1ccc(C)c(S(=O)(=O)N2CCN(C(=O)CCNS(=O)(=O)c3ccc(C)c(C)c3)CC2)c1 | -5.1 |
| CCOC(=O)C1CCN(Cc2cc(=O)oc3c(C)c(C)ccc23)CC1 | -3.23 |
| COCCn1c(SCC#N)nnc1-c1ccc2c(c1)OCO2 | -24.2 |
| CCC(=O)Nc1c(-c2ccc(C)cc2)nc2ccc(C)cn12 | -0.87 |
| Cc1c(NC2(c3nnnn3-c3ccc(Br)cc3)CCCCC2)c(=O)n(-c2ccccc2)n1C | -36.3 |

| SMILES | hERG current change (%, negative = inhibition) at 10uM [%] |
| --- | --- |
| Cc1ccc(CN2CCC(Oc3ccc(C(=O)NCc4ccccn4)cc3)CC2)o1 | -15.2 |
| Cc1ccc(OCC(=O)O/N=C(\N)c2ccncc2)c(C)c1 | -6.39 |
| Cc1ccc(CNC(=O)C2CCCN(S(=O)(=O)c3cccnc3)C2)cc1 (stereo not drawn) | -9.82 |
| O=C(NCCC1=CCCCC1)C1CCC(CNc2c(N3CCCC3)c(=O)c2=O)CC1 (stereo not drawn) | 29.2 |
| COc1ccc(OCCSc2nnc(C)n2-c2ccccc2)cc1 | -32.8 |
| COCCn1c(C)cc(C(=O)COC(=O)c2ccc(N3CCCC3=O)cc2)c1C | 3.89 |
| Cn1c(SCC(=O)Nc2ccccc2)nnc1-c1ccc2nonc2c1 | -9.53 |
| O=C(/C=C/c1cccs1)NC1CCCC1 | 18.1 |
| Cc1cc(C(=O)NCCCN2CCCC2=O)no1 | 10.9 |
| O=C(CCCCn1c(=O)c2ccccc2n(Cc2ccccc2F)c1=O)NC1CCN(Cc2ccccc2)CC1 | -9.04 |
| CCCCCCOC(=O)C(C#N)c1nc2ccccc2nc1N1CCN(C)CC1 (stereo not drawn) | -74.7 |
| CC(Oc1ccccc1)C(=O)Nc1cccc([N+](=O)[O-])c1 (stereo not drawn) | -22 |
| C/C(=N\NC(=S)NCc1ccccc1)c1cccc(Br)c1 | 10.6 |
| Cc1ccc(S(=O)(=O)N2CCCOC2CNC(=O)C(=O)NCc2ccccn2)cc1 (stereo not drawn) | 4.8 |
| CCOC(=O)c1cnn2c1[nH]c(=O)c1ccccc12 | 7.36 |
| CCCCn1c(-c2ccccc2C)nc2cc3[nH]c(=O)c(C(C)C)nc3cc21 | -1.92 |
| COc1ccc(NC(=O)Nc2nc3ccccc3s2)cc1 | 7.87 |
| O=C(NCC1CCCO1)c1cccc(-n2cnnn2)c1 (stereo not drawn) | 14.3 |
| Cc1ccc(CCNC(=O)CN(C)S(=O)(=O)c2ccc3c(c2)n(C)c(=O)c(=O)n3C)cc1 | -44.2 |
| NC(=O)NC(=O)COC(=O)c1sc2ccccc2c1Cl | 3.64 |
| Cc1cc(SCC(=O)NC2CCCCC2)nc2ccccc12 | 7.88 |
